# The list shows a part of the results. Values were computed here from the reads of four pooled replicates and scatter widely.
# Target: T1, Pho4 (S. cerevisiae) (UniProt P07270)
# T1 sequence: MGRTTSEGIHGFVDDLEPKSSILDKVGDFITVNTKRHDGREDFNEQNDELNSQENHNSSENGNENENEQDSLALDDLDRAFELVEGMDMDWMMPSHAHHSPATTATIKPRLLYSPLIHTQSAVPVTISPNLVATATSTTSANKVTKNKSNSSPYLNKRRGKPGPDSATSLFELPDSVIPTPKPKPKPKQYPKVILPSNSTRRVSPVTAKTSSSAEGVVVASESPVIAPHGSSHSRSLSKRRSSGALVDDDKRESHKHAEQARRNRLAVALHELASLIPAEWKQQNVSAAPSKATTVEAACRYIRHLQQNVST
# Assay: relative binding free energy (BET-seq); higher = weaker binding
# Conditions: reference: library average
row,Sequence,relative binding free energy [kcal/mol]
1,ATGGTCACGTGAATAA,0.34
2,ACTGTCACGTGACGGG,0.22
3,AATTTCACGTGTTGCT,0.19
4,TCTTGCACGTGATATA,0.13
5,GCTTGCACGTGATGTG,0.17
6,AGGAGCACGTGGATTG,-0.16
7,CGGTTCACGTGGTAAT,0.3
8,AGGAGCACGTGTTGTG,-0.04
9,GTGGCCACGTGGGTAG,-0.16
10,GAGGTCACGTGGGTAG,0.12
11,TTGTTCACGTGCTTCG,0.14
12,GTCGACACGTGGTGGT,-0.01
13,TCAGGCACGTGGTTTG,-0.09
14,GTCGACACGTGGGGCT,-0.06
15,TGGATCACGTGTTGGA,0.24
16,GCGTTCACGTGAAAGT,0.36
17,TGTGACACGTGAGTAT,0.12
18,GATAGCACGTGCAGGT,0.01
19,CCTGGCACGTGTGGCG,-0.04
20,TAGGACACGTGCTGGG,-0.05
21,GTTATCACGTGTTAAG,0.26
22,GGGGTCACGTGTAAAG,0.28
23,ATCTGCACGTGGAGAT,0.09

row,Sequence,relative binding free energy [kcal/mol]
1,GAGGGCACGTGTTATT,-0.1
2,TCTTGCACGTGGTAGT,-0.01
3,TGCAACACGTGGGGGA,-0.03
4,AAGGACACGTGGGAGA,0.06
5,TATACCACGTGAGGGT,0.12
6,GGTATCACGTGAGACG,0.35
7,TAATTCACGTGCTGGT,0.37
8,TTAGTCACGTGTATTA,0.04
9,CCTTGCACGTGCGGGT,0
10,CGGGTCACGTGGGTAG,-0.04
11,GTTGGCACGTGTTGGT,0.08
12,ATTGGCACGTGTAACT,0.02
13,AGTTACACGTGGAGGG,0.22
14,GACATCACGTGGTGTT,0.07
15,ATTGTCACGTGTAGTT,0.06
16,ATGATCACGTGGTAGA,0.26
17,GAAAGCACGTGATTGT,0.28
18,TGAAACACGTGGATGT,0.06
19,GGTCTCACGTGGATTG,0.12
20,AGTCGCACGTGAGCGT,0.18
21,TCTTGCACGTGTGAAG,0.12
22,AAGGTCACGTGGTTTC,0.03
23,GGAGTCACGTGGTCGT,0.07

row,Sequence,relative binding free energy [kcal/mol]
1,GTTGGCACGTGGCTTG,-0.05
2,TGGTGCACGTGGACCG,-0.05
3,TACGGCACGTGTGGGG,-0.04
4,GTAGACACGTGAAGGT,0.36
5,TCTGTCACGTGTATGA,0.11
6,CATTACACGTGTGGGG,0.11
7,GCTGGCACGTGGTGCG,-0.14
8,TGTAACACGTGTGGCA,0.07
9,TTAGTCACGTGGTAGA,-0.05
10,AGGATCACGTGGAGGG,0.07
11,GAAAGCACGTGGAGTT,0.07
12,CGTGGCACGTGTGATT,0.06
13,TTTGGCACGTGCAGCA,-0.09
14,TAAGGCACGTGTCAGG,-0.18
15,TCGGGCACGTGCCGGG,-0.21
16,AATAGCACGTGGGTTT,-0.17
17,TAATCCACGTGTAAGG,0.17
18,GGGCTCACGTGAAGGG,0.28
19,TGGCTCACGTGGAGAG,0.12
20,ATTTGCACGTGCTAGG,0.09
21,GAAATCACGTGTATGT,0.14
22,TAATACACGTGTGTGG,0.08
23,TGGGGCACGTGTGGAT,0.06

row,Sequence,relative binding free energy [kcal/mol]
1,GGCTTCACGTGTGGTA,0.23
2,TAATTCACGTGTTCTA,0.3
3,GGTGTCACGTGTCAGC,0.08
4,GTGGGCACGTGCTAGG,-0.23
5,TGCTGCACGTGGAGTA,-0.07
6,GCAGGCACGTGGGTGA,-0.29
7,GTTGGCACGTGTGCTG,-0.07
8,CGATGCACGTGGTTAG,0.01
9,TTTTGCACGTGCACGG,-0.15
10,GTACACACGTGGCGGT,0.09
11,ATAGGCACGTGAGTGC,0.21
12,TGTCGCACGTGAGGTT,0.13
13,GGTGACACGTGGGTAC,-0.14
14,GTTAGCACGTGATGGC,0.17
15,CGTATCACGTGGCGTA,0.06
16,CAGAGCACGTGAGGTG,0.06
17,AGTGTCACGTGGTGCC,-0.03
18,TGCGTCACGTGTGCAG,0.08
19,AAGAGCACGTGGCTGG,-0.1
20,GGTTTCACGTGCGGAA,0.17
21,TTATTCACGTGGGCCT,0.13
22,TTATGCACGTGTAGAT,0.09
23,TAAATCACGTGTCATG,0.26

row,Sequence,relative binding free energy [kcal/mol]
1,GGAGACACGTGGGTGC,-0.18
2,GTCGGCACGTGATATG,0.08
3,GTCGTCACGTGGGTGG,0.12
4,AGATTCACGTGGTGGT,0.1
5,GTTCGCACGTGACGGG,0.02
6,TTTAACACGTGGGCAT,-0.14
7,ATGTGCACGTGAGTTC,0.12
8,TTGTACACGTGATGAG,0.04
9,CTTAGCACGTGGTAGG,-0.18
10,ATAGGCACGTGGCGCG,-0.22
11,TAGGGCACGTGGATTG,0
12,GTGGGCACGTGGTACA,-0.16
13,TTCATCACGTGTTGTG,0.07
14,GTGTTCACGTGGAGGT,0.24
15,AGTTGCACGTGCGGGT,0
16,GATGTCACGTGTTAAA,0.17
17,TGGGACACGTGGTGCG,-0.17
18,ATTATCACGTGTATGA,0.23
19,TGTTACACGTGGTTGC,0.06
20,CGGGGCACGTGAGGCT,0.14
21,TACCGCACGTGTTAGG,0.11
22,GAGTGCACGTGGTTTT,0.11
23,TATACCACGTGGGTTA,-0.18

# From the BET-seq Pho4 binding data (Le et al. 2018)
